Assay results published in PubChem BioAssay AID488969 (Vanderbilt High Throughput Screening Facility, 2010).
The full ranking holds about 110,000 compounds; the median of “z-score” is about -0.1, and the highest 2% start at about 2. Some of the results follow. Activity calls are given as the source filed them.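 Rule for the calls: active = z-score in the third read window above 3 or below -3; inactive = the rest.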

target: Metabotropic glutamate receptor 8 (Rattus norvegicus) (UniProt P70579); experiment: mGluR8 Gi/Go-coupled signaling modulation – cell-based, rat, thallium flux, HTS, primary screen (AID 488969); details: HEK293 rat mGluR8, GIRK (G protein-gated inwardly rectifying potassium channel) thallium flux, FluoZin2; at 10 µM; stronger effect = higher value; submaximal glutamate (EC20) added with thallium
UniProt P70579, sequence (P70579 whole entry, looked up): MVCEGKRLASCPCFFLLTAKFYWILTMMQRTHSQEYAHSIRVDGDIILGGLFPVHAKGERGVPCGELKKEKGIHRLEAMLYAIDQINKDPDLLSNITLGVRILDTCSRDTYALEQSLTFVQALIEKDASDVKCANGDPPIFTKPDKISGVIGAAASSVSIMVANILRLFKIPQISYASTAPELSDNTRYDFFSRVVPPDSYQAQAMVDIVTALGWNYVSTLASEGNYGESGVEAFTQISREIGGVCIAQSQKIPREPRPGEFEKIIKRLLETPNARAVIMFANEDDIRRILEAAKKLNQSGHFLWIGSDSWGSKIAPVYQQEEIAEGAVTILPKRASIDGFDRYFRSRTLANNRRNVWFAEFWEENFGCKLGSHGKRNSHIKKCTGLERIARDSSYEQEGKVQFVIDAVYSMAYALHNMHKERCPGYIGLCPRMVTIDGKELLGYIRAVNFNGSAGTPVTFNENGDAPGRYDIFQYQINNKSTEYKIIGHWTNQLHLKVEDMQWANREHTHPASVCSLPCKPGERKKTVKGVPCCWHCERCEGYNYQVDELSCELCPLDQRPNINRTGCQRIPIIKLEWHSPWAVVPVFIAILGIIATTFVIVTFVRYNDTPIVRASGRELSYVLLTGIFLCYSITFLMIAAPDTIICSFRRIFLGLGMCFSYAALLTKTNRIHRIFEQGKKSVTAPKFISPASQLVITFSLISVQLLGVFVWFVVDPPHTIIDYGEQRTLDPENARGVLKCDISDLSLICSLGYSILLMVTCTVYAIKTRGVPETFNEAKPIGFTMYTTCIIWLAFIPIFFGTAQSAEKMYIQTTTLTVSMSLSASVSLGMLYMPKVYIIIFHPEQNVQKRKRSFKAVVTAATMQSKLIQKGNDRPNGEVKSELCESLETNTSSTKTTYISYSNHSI

SMILES | z-score
Cn1cc(C(=O)c2cccc(Cl)c2Cl)cc1C(=O)O | -0.377
CCOc1ccc(NC(=O)c2ccccc2OCC(=O)c2ccccc2)cc1 | 0.143
CCN(CC)CCCN(Cc1cc2ccc(C)c(C)c2[nH]c1=O)C(=O)NC1CCCCC1 | -0.0801
O=C(CSc1nnc(-c2ccco2)n1-c1ccccc1)N1CCN(C(=O)c2ccco2)CC1 | -1.36
CC1CN(S(=O)(=O)c2cccc3nsnc23)CC(C)O1 (stereo unspecified) | 0.784
O=C(CCS(=O)(=O)c1ccc(Cl)cc1)NCCN1C(=O)S/C(=C\c2ccccc2F)C1=O | -0.162
Cc1ccc(C)c(NS(=O)(=O)c2ccc(OCC(=O)N3CCCC3)cc2)c1 | -0.386
Cc1ccc(-n2c(SCC(=O)Nc3cccc(S(=O)(=O)NC4=NCCCCC4)c3)nc3ccccc3c2=O)cc1 | -0.48
C=CCNC(=O)c1ccc(C)cc1Cl | 0.255
Cc1cccc2sc(NC(=O)c3ccc(Cl)s3)nc12 | 1.31
COC(=O)c1ccc(Oc2ccc3nnc(C)n3n2)cc1 | -0.431
Cc1cc(C)c(C#N)c(SCS(=O)Cc2ccccc2)n1 (stereo unspecified) | -0.254
O=C(Nc1ccccc1N1CCOCC1)c1ccc(Br)o1 | 0.135
COc1ccc(/C=C2/Sc3ccc(C(=O)N4CCc5ccccc5C4)cc3NC2=O)cc1 | -0.000126
CC1(C)CCC(=O)N(c2ccccc2)C1=O | -0.37
O=C(/C=C/c1c(Cl)cccc1Cl)n1cccn1 | -0.0919
Cc1cc(NC(=O)CSc2nc3ccccc3c(=O)n2CCCC(=O)NCc2ccccc2)n[nH]1 | -0.712
O=C(c1ccc(Cl)cc1Cl)c1ncc(C(F)(F)F)cc1Cl | -0.0716
Cc1ccc(OCC(=O)N2CCN(c3ccc([N+](=O)[O-])c(N4CCOCC4)c3)CC2)cc1 | -0.597

SMILES | z-score
CCN1CCCC1CNC(=O)c1cc2c(C)nc3ccccc3c2o1 (stereo unspecified) | 0.215
COc1ccc(N2C(=O)CC(NCc3ccc(F)cc3)C2=O)cc1 (stereo unspecified) | -0.0142
COc1cc(C(=O)NC2CC3CCCC(C2)N3CC(=O)Nc2ccccc2)cc(OC)c1OC (stereo unspecified) | -2.03
O=C1NC(CCc2ccccc2)C(=O)N1Cc1ccccc1Cl (stereo unspecified) | -2.13
CC1(C)CC2(CC(c3ccccc3)Oc3cc(O)ccc32)NC(=S)N1 (stereo unspecified) | 0.076
CCc1nnc(NC(=O)C2c3ccccc3Oc3ccccc32)s1 | 0.0278
COc1ccc(NC(=S)N2CCN(C(c3ccccc3)c3ccccc3)CC2)cc1OC | -0.136
COc1ccc(CN2C(=O)CN(C3CCCCCC3)C(=O)C2c2ccc(F)cc2)cc1 (stereo unspecified) | -0.0754
Clc1cccc2sc(N3CCCCC3)nc12 | -1.09
Cc1cn(C(=O)c2ccccc2)c(=S)n1-c1ccc(Br)cc1 | -0.326
Cc1nc2nc(-c3ccc(Cl)cc3)[nH]n2c(=O)c1Cc1ccccc1 | -0.0342
O=C(CCCN1C(=O)c2cccc3cccc(c23)C1=O)N1CCc2ccccc2C1 | -0.445
O=C(NC(=S)NC(c1ccccc1)c1ccncc1)c1ccccc1 (stereo unspecified) | -0.741
Cc1ccc(C)c(NC(=O)C(Sc2nnc(-c3cccs3)o2)c2ccccc2)c1 (stereo unspecified) | -0.472
Cc1ccccc1NC(=O)CSc1nc2ccccc2c2nc(CCn3cncc3C)nn12 | -0.225
c1coc(CN2CCN(C(c3cccs3)c3nnnn3C3CCCC3)CC2)c1 (stereo unspecified) | -1.93
O=C(CSc1nc2ccccc2n1S(=O)(=O)c1ccccc1)N1CCCCC1 | -0.275
O=C(Nc1ccc2oc(=O)ccc2c1)c1ccc(-c2ccc(Cl)cc2)o1 | -0.947
CCOC(=O)c1sc(NS(=O)(=O)c2ccc(NC(C)=O)cc2)nc1C | -0.427

SMILES | z-score
CN(CC(=O)NCC1CCCO1)S(=O)(=O)c1cc(Cl)ccc1Cl (stereo unspecified) | 0.0349
O=c1c2cc(Cl)ccc2[nH]c(=S)n1Cc1cccs1 | active: 4.2
COc1ccc(CC(C)N2CCN(c3ccccc3)CC2)cc1OC (stereo unspecified) | -0.169
COCCCNC(=O)c1sc2ncnc(N3CCc4ccccc4C3)c2c1C | -1.13
Cc1ccc(C(=O)N2C(=S)C(c3ccc(F)cc3)=NC23CCN(C)CC3)cc1 | -0.149
CCOC(=O)C1CCCN(C(=O)c2sc3nc(-c4ccccc4)cn3c2C)C1 (stereo unspecified) | -0.904
CCOC(=O)CSC(C)C(=O)Nc1nnc(C(C)C)s1 (stereo unspecified) | -0.394
OC(COCc1cccs1)CN1CCN(c2cccc(C(F)(F)F)c2)CC1 (stereo unspecified) | 1.07
CC(=O)Nc1ccc(S(=O)(=O)Nc2c(C)nn(-c3ccccc3)c2C)cc1 | -0.72
Cc1ccc(-c2ccccc2)n1-c1ccc(C(=O)O)cc1 | 0.116
Cc1cc(C)cc(NC(=O)CC23CC4CC(C2)CC(n2nnc(C)n2)(C4)C3)c1 | -1.43
Cc1ccc(-n2c(C)nnc2SCC(=O)Nc2ccccc2)cc1 | 0.00869
Cc1cc(C(=O)Nc2ccc(S(=O)(=O)Nc3onc(C)c3C)cc2)cs1 | 0.223
COC(=O)c1ccc(NC(=O)c2ccc(F)cc2)o1 | 0.176
O=C(Cn1ccc([N+](=O)[O-])n1)Nc1nccs1 | -0.0401
COc1ccc(-c2noc(CSc3nc(N)c(-c4ccccc4)c(=O)[nH]3)n2)cc1 | -0.223
Cc1scc(-c2n[nH]c(=S)n2Cc2ccccc2)c1C | 0.854
Nc1nc(-c2ccccc2)cc(N2CCCCC2)n1 | 0.464
